# From the supplement of paper PMC11876631
# ± gives the standard deviation of the averaged measurements. Laboratory Escherichia coli strains with one amino-acid change in an essential protein, pooled on minimal glucose agar with carbenicillin or gentamicin at twice the control MIC (plus kanamycin and chloramphenicol for the plasmids), 48 h. Fold change of barcode share against drug-free plates; higher = less susceptible. Active = above 20 in both replicates (the paper's putatively resistant). '<' = one read or none on drug, '>' = one read or none on a drug-free plate. Shares are relative, so most strains fall below 1 when a few take over. Listed are strains with at least 15 reads on both drug-free plates, and hits; most hits rest on fewer reference reads. Replicate rank correlation about 0.5. Edits are read from barcodes.
# B1: trpD; numbered along this chain (parent)
# chain: MADILLLDNIDSFTYNLADQLRSNGHNVVIYRNHIPAQTLIERLATMSNPVLMLSPGPGVPSEAGCMPELLTRLRGKLPIIGICLGHQAIVEAYGGYVGQAGEILHGKASSIEHDGQAMFAGLTNPLPVARYHSLVGSNIPAGLTINAHFNGMVMAVRHDADRVCGFQFHPESILTTQGARLLEQTLAWAQQKLEPANTLQPILEKLYQAQTLSQQESHQLFSAVVRGELKPEQLAAALVSMKIRGEHPNEIAGAATALLENAAPFPRPDYLFADIVGTGGDGSNSINISTASAFVAAACGLKVAKHGNRSVSSKSGSSDLLAAFGINLDMNADKSRQALDELGVCFLFAPKYHTGFRHAMPVRQQLKTRTLFNVLGPLINPAHPPLALIGVYSPELVLPIAETLRVLGYQRAAVVHSGGMDEVSLHAPTIVAELHDGEIKSYQLTAEDFGLTPYHQEQLAGGTPEENRDILTRLLQGKGDAAHEAAVAANVAMLMRLHGHEDLQANAQTVLEVLRSGSAYDRVTALAARG
# B2: carB; numbered along this chain (parent)
# chain: MPKRTDIKSILILGAGPIVIGQACEFDYSGAQACKALREEGYRVILVNSNPATIMTDPEMADATYIEPIHWEVVRKIIEKERPDAVLPTMGGQTALNCALELERQGVLEEFGVTMIGATADAIDKAEDRRRFDVAMKKIGLETARSGIAHTMEEALAVAADVGFPCIIRPSFTMGGSGGGIAYNREEFEEICARGLDLSPTKELLIDESLIGWKEYEMEVVRDKNDNCIIVCSIENFDAMGIHTGDSITVAPAQTLTDKEYQIMRNASMAVLREIGVETGGSNVQFAVNPKNGRLIVIEMNPRVSRSSALASKATGFPIAKVAAKLAVGYTLDELMNDITGGRTPASFEPSIDYVVTKIPRFNFEKFAGANDRLTTQMKSVGEVMAIGRTQQESLQKALRGLEVGATGFDPKVSLDDPEALTKIRRELKDAGADRIWYIADAFRAGLSVDGVFNLTNIDRWFLVQIEELVRLEEKVAEVGITGLNADFLRQLKRKGFADARLAKLAGVREAEIRKLRDQYDLHPVYKRVDTCAAEFATDTAYMYSTYEEECEANPSTDREKIMVLGGGPNRIGQGIEFDYCCVHASLALREDGYETIMVNCNPETVSTDYDTSDRLYFEPVTLEDVLEIVRIEKPKGVIVQYGGQTPLKLARALEAAGVPVIGTSPDAIDRAEDRERFQHAVERLKLKQPANATVTAIEMAVEKAKEIGYPLVVRPSYVLGGRAMEIVYDEADLRRYFQTAVSVSNDAPVLLDHFLDDAVEVDVDAICDGEMVLIGGIMEHIEQAGVHSGDSACSLPAYTLSQEIQDVMRQQVQKLAFELQVRGLMNVQFAVKNNEVYLIEVNPRAARTVPFVSKATGVPLAKVAARVMAGKSLAEQGVTKEVIPPYYSVKEVVLPFNKFPGVDPLLGPEMRSTGEVMGVGRTFAEAFAKAQLGSNSTMKKHGRALLSVREGDKERVVDLAAKLLKQGFELDATHGTAIVLGEAGINPRLVNKVHEGRPHIQDRIKNGEYTYIINTTSGRRAIEDSRVIRRSALQYKVHYDTTLNGGFATAMALNADATEKVISVQEMHAQIK
# B3: lptF; a variant is named by its letters at X, in order (parent)
# chain: MIIIRYLVRETLKSQLAILFILLLIFFCQKLVRILGAAVDGDIPANLVLSLLGLGVPEMAQLILPLSLFLGXLMTLGKLYTESEITVMHACGLSKAVLVKAAMILAVFTAIVAAVNVMWAGPWSSRHQDEVLAEAKANPGMAALAQGQFQQATNGSSVLFIESVDGSDFKDVFLAQIRPKGNARPSVVVADSGHLTQLRDGSQVVTLNQGTRFEGTALLRDFRITDFQDYQAIIGHQAVALDPNDTDQMDMRTLWNTDTDRARAELNWRITLVFTXFXXALXXXPLSVVNPRQGRVLSMLPAMLLYLLFFLIQTSLKSNGGKGKLDPTLWMWTVNLIYLALAIVLNLWDTVPVRRLRASFSRKGAV
# Variants of: B1
# Assay: barcode share on antibiotic plates over drug-free plates; higher = less susceptible
# Conditions: with Escherichia coli (laboratory strain); antibiotic: carbenicillin; 2× MIC (3.1 µg/mL)
# Procedure: (§1)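 A pool of E. coli strains, each edited to carry one amino-acid change in an essential protein, was grown for 48 h on minimal glucose agar with or without antibiotic; strain barcodes were sequenced; mean of two replicates.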
row,Variant,fold change of barcode share
1,V416A,0.441 ± 0.11
2,F347W,0.542 ± 0.027
3,F347A,0.356 ± 0.21
4,F347Q,0.997 ± 0.36
5,F347D,> 21.9 [active]
6,F373A,0.566 ± 0.11
7,F373W,0.702 ± 0.48
8,L495A,0.953 ± 0.69
9,I81W,0.402 ± 0.23
10,I81A,0.597 ± 0.29
11,I81Q,0.605 ± 0.033
12,M67P,0.469 ± 0.14
13,M67D,0.535 ± 0.12
14,M67Q,0.418 ± 0.025
15,M67A,0.4026 ± 0.0037
16,M67W,0.433 ± 0.049
17,L70A,0.426 ± 0.17
18,L70W,0.5 ± 0.026
19,L70D,0.667 ± 0.26
20,L70Q,0.366 ± 0.089

# Same assay, conditions: with Escherichia coli (laboratory strain); antibiotic: gentamicin; 2× MIC (MIC 0.45 µg/mL)
row,Variant,fold change of barcode share
1,V416A,0.0804 ± 0.1
2,F347W,0.0388 ± 0.019
3,F347A,0.0113 ± 0.01
4,F373A,0.0186 ± 0.003
5,L495A,0.0105 ± 0.0031
6,I81A,< 0.0117
7,M67P,< 0.00654
8,M67D,0.0185 ± 0.0097
9,M67Q,0.00833 ± 0.0028
10,M67A,0.0276 ± 0.033
11,M67W,0.0124 ± 0.011
12,L70A,0.00935 ± 0.00074
13,L70W,1.29 ± 1.8
14,L70D,0.0409 ± 0.027
15,L70Q,0.0195 ± 0.0097

# Variants of: B2
# Assay: as above
# Conditions: with Escherichia coli (laboratory strain); antibiotic: carbenicillin; 2× MIC (3.1 µg/mL)
# Procedure: as §1
row,Variant,fold change of barcode share
1,V322W,0.402 ± 0.0075
2,V322Q,0.259 ± 0.017
3,V322A,0.208 ± 0.016
4,L13P,0.1822 ± 0.00036
5,L13A,0.262 ± 0.038
6,L13W,0.336 ± 0.042
7,I352Q,0.35 ± 0.1
8,I352D,0.204 ± 0.038
9,I352P,0.294 ± 0.13
10,I352A,0.241 ± 0.07
11,M598A,0.643 ± 0.095
12,M598D,0.92 ± 0.77
13,M598W,0.691 ± 0.007
14,M598Q,0.929 ± 0.08
15,M918Q,0.2623 ± 0.0024
16,M918P,1.85 ± 0.24
17,M918A,0.3335 ± 0.0021
18,M918D,0.302 ± 0.0037
19,M918W,0.347 ± 0.04

# Same assay, conditions: with Escherichia coli (laboratory strain); antibiotic: gentamicin; 2× MIC (MIC 0.45 µg/mL)
row,Variant,fold change of barcode share
1,V322W,0.00572 ± 0.0028
2,V322Q,0.00836 ± 0.0014
3,V322A,0.00522 ± 0.0029
4,L13P,0.0184 ± 0.013
5,L13A,0.0117 ± 0.0068
6,V381Q,0.0205 ± 0.016
7,V381D,< 0.0128
8,V381A,0.0155 ± 0.011
9,I352Q,0.0157 ± 0.004
10,I352D,0.0453 ± 0.051
11,I352P,0.00934 ± 0.0043
12,I352A,0.0113 ± 0.01
13,M598A,0.0238 ± 0.023
14,M598D,0.0154 ± 0.014
15,M598W,0.0359 ± 0.039
16,M598Q,0.0188 ± 0.014
17,M918Q,0.0364 ± 0.034
18,M918A,0.0154 ± 0.0037
19,M918D,0.0184 ± 0.00087
20,M918W,0.0121 ± 0.0028

# Variants of: B3
# Assay: as above
# Conditions: with Escherichia coli (laboratory strain); antibiotic: carbenicillin; 2× MIC (3.1 µg/mL)
# Procedure: as §1
row,Variant,fold change of barcode share
1,DVMMMVV,0.563 ± 0.39
2,LVMMQVV,0.313 ± 0.018
3,LDMMMVV,0.457 ± 0.18
4,LVMMMAV,0.218 ± 0.032
5,LVDMMVV,0.188 ± 0.0056
6,LVPMMVV,0.166 ± 0.027
7,PVMMMVV,0.346 ± 0.11
8,LVMQMVV,0.242 ± 0.013
9,AVMMMVV,0.839 ± 0.6
10,LVWMMVV,0.273 ± 0.036
11,LVMMMQV,0.377 ± 0.058
12,QVMMMVV,0.202 ± 0.0032
13,LAMMMVV,0.284 ± 0.12
14,LVMWMVV,0.279 ± 0.077
15,LVMDMVV,0.463 ± 0.16
16,LVMMPVV,0.2082 ± 0.0012
17,LVMPMVV,0.267 ± 0.052
18,LVMMMVA,0.287 ± 0.073

# Same assay, conditions: with Escherichia coli (laboratory strain); antibiotic: gentamicin; 2× MIC (MIC 0.45 µg/mL)
row,Variant,fold change of barcode share
1,DVMMMVV,< 0.00734
2,LVMMQVV,< 0.00887
3,LDMMMVV,0.00753 ± 0.0042
4,LVMMMAV,< 0.0208
5,LVDMMVV,0.00718 ± 0.0025
6,LVPMMVV,0.0143 ± 0.014
7,PVMMMVV,< 0.0132
8,LVMQMVV,< 0.00331
9,AVMMMVV,0.00714 ± 0.0049
10,LVWMMVV,< 0.00656
11,LVMMMWV,0.0231 ± 0.019
12,LVMMMQV,< 0.00914
13,QVMMMVV,< 0.0088
14,LAMMMVV,< 0.00579
15,LVMWMVV,< 0.00841
16,LVMDMVV,0.00883 ± 0.002
17,LVMMPVV,< 0.0102
18,LVMPMVV,0.0105 ± 0.01
19,LVMMMVP,< 0.0123
20,LVMMMVQ,< 0.0102
21,LVMMMVA,< 0.00961
